According to the supplement of paper PMC7125110:
± gives the standard error. This sample is rich in variants without activity.

B1: glmS ribozyme (parent)
chain: AUAAAAGCGCCAGAACUACAGAAAUGUAGUUGACGAGGAGGAGGUUUAUCGAAUUUUCGGCGGAUGCCUCCAAA

Variants of: B1
Assay: self-cleavage kobs at 2500 uM GlcN6P; higher = faster cleavage; RNA array
Settings: with glucosamine-6-phosphate
In short: (§1)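 kobs was derived by fitting per-tile medians to one- or two-exponential decays after normalising signals to baseline and to non-cleaving reference variants. Those signals came from barcoded ribozyme variants transcribed in situ by E. coli RNA polymerase on sequenced MiSeq chips, followed through a hybridised Cy3 probe at 37 °C and imaged over ~14 h. Glucosamine-6-phosphate (40 μM to 10 mM) in HEPES/KCl/Mg(OAc)2 buffer was flowed in. Weighted Michaelis–Menten fits across concentrations then gave kcat and KM.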

self-cleavage kobs at 2500 uM GlcN6P, 3.62e-05 ± 1.1e-05 s⁻¹:
U30C C68A

self-cleavage kobs at 2500 uM GlcN6P, 6.98e-05 ± 1.7e-05 s⁻¹:
A14U G40C A64G

self-cleavage kobs at 2500 uM GlcN6P, 4.16e-05 ± 1.5e-05 s⁻¹:
G13U A53G C68G

self-cleavage kobs at 2500 uM GlcN6P, 7.46e-05 ± 2.7e-05 s⁻¹:
C11A A14C C70U

self-cleavage kobs at 2500 uM GlcN6P, 6.51e-05 ± 2.5e-05 s⁻¹:
C16U G32U U46G

self-cleavage kobs at 2500 uM GlcN6P, 1.83e-05 ± 8e-06 s⁻¹:
C10U C70U

self-cleavage kobs at 2500 uM GlcN6P, 5.24e-05 ± 2.2e-05 s⁻¹:
A33C U56G

self-cleavage kobs at 2500 uM GlcN6P, < 1e-05 s⁻¹:
A12G A36C G62U
C10A G37C G40C G43U
G37C G44A G62U
G35A G60U C68U
A15G G32C G41U A53C C61G
U30A U56A G60U
G29A G43U U46A G51A
C10G C11G A36C G38C A53C G60U
A15U A33C C67A
G13U C34U G41U A53G C58G
C11U G29C G44U G63U U65C C67U C71U
U31C G35C G51C
C10U C11U A15C C34A
G9U C11G G35C A42G
A14G G29U G40U G62A C70G
C11G A12C A48C
A15G U31C A39G U47A C50U
U31C U46A G63C
A15U U30A A48U U49C
G38A G40A A53U
A33G A36U G40C U54G C68U
G35C A53G U69G C71A
A14U G29U U30C
A15U C50U U54C G59C
A12G G35C G38C G40C
G9U U30G A48G
C10U G37C G44A C58U C61A G62A
A15U G37A G41C C71A
G38C A52U U56C
A14C A33C G40A G43U A53U
G29C G37U G62U
C10G G29C C70U
G13U G37A U54C U57A A64G
C34G A48C U56G C58A G59U
G38C U57A
C16U A42G G43U
C11G A14G G63C
G13U A48U C50U A64G C70U
C10A C11A G51U A52U
G9U C10U C34U A53U G63U
A36G G37A G62U G63U A64U U65G C67A
C34A G43A U54G
C16U G62U C71U
A12C U30C G59A
A12G A39U C58U U69A C70G
A33C A36C U47A
A14G C34U G35A
G9U G43C A53U C58G
C10U G13U A64C
G13C A33U U65C C70U
A15U G37C U56C
C11U G43U C70G
C10G C11G U31G
G32C A33G U46C
A36C U47A C61U
A12G A15U G37U A42G U55A
C11U G40C U56C
A33G G35A A36C G41A C61G C68G
A12G G32C A36C C67G
C10U A48C A52G
G32C A39G G59A
U30A A36C G37A G40U
G13U A24C G59C C61U
A33C U46A C70U
C11G G60C G63C
C16U G35U U46A U57A
A12G A42U G59C G60C A64C G66A
G35U C50U A64C C68G
C11U A12C G32U
C34U A39U G43U
A12C A53G C58A G59C
C10U G29U G63U
U30C G35C G37C
G37C G40U G43C C68A C70A
A14U G40U G59A C70A
U30G A53C U57A C61G C71U
A33C A36U U49A U56C C61U
C11G U31A G32C A36U U57A
A33C G38A G62U
U30A A36U C71A
A33C G38A A42U A53U
C10U G51U G60U
G9U C16U G29U G59A
U31A C34A C71U
A36C G60A A64U
C34U A52U U65G
U31C C50U A64U
A36C C50U U56A
C11U G13C G62A C71U
G29C G41A C71G
C16A A48U C58U
C11G G35A G66U
A14U G35U C58U C70U
A33C U49C C70U
A12U G13U A33G A39U A48U
G37A U47G A64U C71U
C10A A48C
G13U A14G A36G U55A
G29A A36G U49G C70U
C10A G38C G41U A52U
G29U G41U G51C U55C U56G
A12G G43A G60U C70U
G32U A33U G41U
A12U U45G C61U
C10U G29C G59U
A14C C16G G32U U57C
G13C G38A A42C G63A C70U
C10U A12C U30C U57A
C11A U30G G44U U46C U47A A48C
C10G C11A G35U U46G
C11A G40A G41A
A15C G43A G62U
A12G C34G A48G
A14C G35U A53C U65A
A33U G35A A39C C50U
G29A G41U G62C
C34A C68G
C11A A48C U49G C58A
U31G C34U A39G U54G G63C
A14C G29U A33U U45C C71U
C16G G44A C70G
G9U U30A G63U
G29C G37A G43C U69A
A15U A36C C61A
G35A G60U C61A
A12U U46G C61U C71G
A14C G29U U45C C50G A64C C70U
C16G C50U G59A A64G
A12G G63A
G29U A48C C58A
A14C G60U C70U
G29U C61U G66U
C16U U30C G32U G35U U47G
G29U G44C C61G
A36C G40C G63U
G32U G37C A52U A64U
C10G A12U G13C
A33C A42C A52C C68G C71A
G13C C50U U54C
A33C G35U A42G A48G
G13C A33C A36G G37C G44A C67G
C10A G44A G59C C67G

self-cleavage kobs at 2500 uM GlcN6P, 0.000476 ± 9.7e-05 s⁻¹:
U30A U47C

self-cleavage kobs at 2500 uM GlcN6P, 0.000121 ± 3.3e-05 s⁻¹:
A14C U31A U54C U57A

self-cleavage kobs at 2500 uM GlcN6P, 0.00129 ± 0.00041 s⁻¹:
A14G A39U C71G

self-cleavage kobs at 2500 uM GlcN6P, 7.9e-05 ± 2e-05 s⁻¹:
G29C G66U

self-cleavage kobs at 2500 uM GlcN6P, 0.000352 ± 8.9e-05 s⁻¹:
C11G U47A C50G C70G

self-cleavage kobs at 2500 uM GlcN6P, 2.81e-05 ± 1e-05 s⁻¹:
A14U A33U

self-cleavage kobs at 2500 uM GlcN6P, 0.00134 ± 0.00059 s⁻¹:
A15U U45A U65G

self-cleavage kobs at 2500 uM GlcN6P, 0.000232 ± 7.5e-05 s⁻¹:
U31A A39U C70G

self-cleavage kobs at 2500 uM GlcN6P, 8.24e-05 ± 3.2e-05 s⁻¹:
C11A A52G C70U

self-cleavage kobs at 2500 uM GlcN6P, 4.68e-05 ± 1.5e-05 s⁻¹:
U30A U65C

self-cleavage kobs at 2500 uM GlcN6P, 0.000101 ± 2e-05 s⁻¹:
G13U A39U U56A

Variants of: B1
Assay: self-cleavage kobs at 10000 uM GlcN6P; higher = faster cleavage; RNA array
Settings: with glucosamine-6-phosphate
In short: as §1

self-cleavage kobs at 10000 uM GlcN6P, 9.39e-05 ± 1.9e-05 s⁻¹:
A14C U31A U54C U57A

self-cleavage kobs at 10000 uM GlcN6P, < 1e-05 s⁻¹:
C10A G37C G40C G43U
C10U G37C G44A C58U C61A G62A
A15U G37C U56C
G32C A39G G59A
C11G G60C G63C
C11G U31A G32C A36U U57A
U30A A36U C71A
C10U G51U G60U
C10A A48C
A12U U45G C61U
A12G C34G A48G
A12G G63A

self-cleavage kobs at 10000 uM GlcN6P, 2.38e-05 ± 7e-06 s⁻¹:
C10U C70U

self-cleavage kobs at 10000 uM GlcN6P, 0.000138 ± 2.5e-05 s⁻¹:
C16U G32U U46G

self-cleavage kobs at 10000 uM GlcN6P, 5.98e-05 ± 1e-05 s⁻¹:
G29C G66U

self-cleavage kobs at 10000 uM GlcN6P, 5.35e-05 ± 1e-05 s⁻¹:
A33C U56G

self-cleavage kobs at 10000 uM GlcN6P, 0.000396 ± 9.1e-05 s⁻¹:
U30A U47C

self-cleavage kobs at 10000 uM GlcN6P, 7.63e-05 ± 9.8e-06 s⁻¹:
A14U A33U

self-cleavage kobs at 10000 uM GlcN6P, 8.23e-05 ± 1.6e-05 s⁻¹:
U30A U65C
